Assay results: PubChem BioAssay AID1671188 (National Center for Advancing Translational Sciences (NCATS), 2021)
Out of some 100,000 compounds screened, about 250 (0.25%) were called active. This list was built around the results that the source calls inconclusive (neither active nor inactive); the mix of calls is not that of the screen. Calls follow the shape of the dose curve; as a rule, active = well fitted inhibition curve with a large enough effect; inconclusive = small, poorly fitted or top-dose-only effect; inactive = flat fitted curve, though single readings scatter. No potency is given beside an inconclusive call; the fits are too rough.
% is scaled to controls: 0 for no effect and ±100 for the full control effect; potency is read from the fitted curve at half-maximal effect; tags tell the direction and shape of the fitted curve.
Also: nearly all actives have a fitted effect of over 60% in size.

These molecules were tested against Alanine aminotransferase 2 (Homo sapiens) (UniProt Q8TD30) (assay: Primary qHTS assay for inhibitors of Glutamate pyruvate transaminase 2 (GPT2)). Settings: Recombinant GPT2, coupled pyruvate oxidase/HRP Amplex Red fluorescence; activity change, negative = inhibition: at 57.7 µM (top of the series) unless noted; series mostly up to 57.7 µM.
Sequence of UniProt Q8TD30 (Q8TD30 whole entry, looked up): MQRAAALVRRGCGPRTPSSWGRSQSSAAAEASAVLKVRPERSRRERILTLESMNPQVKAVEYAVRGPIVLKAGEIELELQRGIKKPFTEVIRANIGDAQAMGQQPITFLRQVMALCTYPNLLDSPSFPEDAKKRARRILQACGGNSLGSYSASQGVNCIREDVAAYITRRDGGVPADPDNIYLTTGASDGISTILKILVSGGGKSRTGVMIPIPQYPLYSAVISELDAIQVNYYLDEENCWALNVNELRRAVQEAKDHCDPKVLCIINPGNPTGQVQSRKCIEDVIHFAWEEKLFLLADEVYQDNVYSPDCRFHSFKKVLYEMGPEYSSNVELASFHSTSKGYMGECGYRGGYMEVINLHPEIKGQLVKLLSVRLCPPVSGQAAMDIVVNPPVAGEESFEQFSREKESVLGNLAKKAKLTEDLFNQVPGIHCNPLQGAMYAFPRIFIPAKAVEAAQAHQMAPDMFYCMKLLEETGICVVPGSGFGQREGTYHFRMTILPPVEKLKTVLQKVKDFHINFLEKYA
Method in brief: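 Fluorescence of coupled pyruvate oxidase/HRP/Amplex Red system (50uM Amplex, 30 min, dark) reports pyruvate formed by GPT2. Enzyme reaction: 10ng/uL GPT2, 2mM L-alanine, 250uM a-KG, 30 min room temperature, pH 7.5; 50uM AOA control.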
COCc1cc(=O)n(CC(=O)Nc2ccc(C(C)C)cc2)c(N2CCOCC2)n1 was tested, and the “outcome” value was “inactive”. For CC(C)[C@@H]1CC[C@@H](C)C[C@@H]1P(=O)(c1ccccc1)c1ccccc1, the Potency was inconclusive [inhibitor, single point]. With COc1ccc(C[C@H](NC(=O)[C@@]2(O)C[C@@H](O)[C@H](O)[C@@H](NC(=O)CS(=O)(=O)c3ccccc3)C2)C(N)=O)cc1 the Potency was inconclusive [inhibitor, full curve, poor fit]. In the case of CCC(CC)CN1CC2(CCN(C(=O)CCc3cnn(C)c3)CC2)OC1=O, the Potency is reported as inconclusive [inhibitor, single point]. With COc1ccc(-c2[nH]nc3ncc(-c4cn[nH]c4)nc23)c(C)c1 the Potency was inconclusive [inhibitor, full curve, poor fit]. In the case of CSCC(=O)N1CCCC(CCc2cccc(F)c2)C1 (stereo not given), the Potency is reported as inconclusive [inhibitor, single point]. CN(C)c1nccnc1OC1CCN(C(=O)c2ccn[nH]2)C1 (stereo not given) was tested, and the “activity change, negative = inhibition” value was inactive: -10%. With CCc1nc2c(c(-c3ccc(OC)cc3)n1)CN(C(=O)c1ccccc1)CC2 the “outcome” value was “inactive”. O=C(CSc1ccncc1)N1CCN2C(=O)N(Cc3ccccc3)C(=O)[C@H]2C1 was tested, and the Potency was inconclusive [inhibitor, full curve, poor fit]. With CC1(COc2cccnc2)COc2ccc(C(=O)Nc3cccc(Cl)c3)cc2N1 (stereo not given) the Potency was inconclusive [inhibitor, partial curve, poor fit]. With CO[C@H]1C(=O)N(C2CCN(C(=O)C(C)C)CC2)[C@H]1c1ccncc1 the “activity change, negative = inhibition” value was inactive: 2.76%. In the case of CCn1c(CN2CCN(CC(=O)N3CCCC3)CC2)nnc1C1CC(N)C1 (stereo not given), the Potency is reported as inconclusive [inhibitor, full curve, poor fit]. With Cc1ccc(C(=O)N2CCN(C3CCN(C)C3=O)CC2)cc1C (stereo not given) the “activity change, negative = inhibition” value was inactive: 1.97%. For COc1ccc(N2CCN(C3CCCN(CC(N)=O)C3)CC2)cc1 (stereo not given), the Potency was inconclusive [inhibitor, partial curve, poor fit]. COc1cccc(-c2ncc3c(n2)OCCN(CC2CC2)C3=O)c1OC was tested, and the “activity change, negative = inhibition” value was inactive: -9.33% [at 88.5 µM]. In the case of CCNC(=O)N1CCCC(Cc2noc(-c3ccccc3)n2)C1 (stereo not given), the Potency is reported as inconclusive [inhibitor, single point]. COc1ccc(/C=C/C(=O)O[C@@H]2[C@@H](O)[C@@H](O)[C@H](O[C@H]3[C@@H]4C=CO[C@@H](O[C@@H]5O[C@H](CO)[C@@H](O)[C@H](O)[C@H]5O)[C@@H]4[C@@]4(CO)O[C@@H]34)O[C@H]2C)cc1 was tested, and the Potency was inconclusive [inhibitor, single point]. COC[C@H]1C[C@@H](NC(=O)c2nc3ccccc3s2)[C@H](O)[C@@H]1O was tested, and the “outcome” value was “inactive [at 88.5 µM]”. In the case of CN(Cc1ccc(F)cc1)Cc1cn(-c2ccccc2)nn1, the “activity change, negative = inhibition” value is reported as inactive: -27.9%. In the case of COc1ccc(NC(=O)Cn2c(N(C)Cc3ccccc3)nc(C)cc2=O)cc1Cl, the “activity change, negative = inhibition” value is reported as inactive: 4.42%. CN1C(=O)c2cccn2CC1CNC(=O)c1nccn1C (stereo not given) was tested, and the Potency was inconclusive [inhibitor, single point]. Cc1ccc([S+](=O)([O-])N2CCCC2C(=O)N2CCC(N3CCOCC3=O)CC2)cc1 (stereo not given) was tested, and the “outcome” value was “inactive”. For Cc1ccc(-c2noc([C@@H]3C[C@H](NC(=O)COc4ccccc4)CN3C)n2)cc1, the Potency was inconclusive [inhibitor, single point]. Cc1cc(CN2C[C@@H](CO)[C@H](c3ccccn3)C2)n(C)n1 was tested, and the Potency was inconclusive [inhibitor, single point]. For CC(=O)N[C@H]1C[C@@H](c2nc(-c3ccccc3)no2)N(C)C1, the “activity change, negative = inhibition” value was inactive: -16.7% [at 88.5 µM]. In the case of COc1cc([C@@H]2C[C@H](NC(C)=O)C[C@H](Cc3ccccc3)O2)cc(OC)c1O, the Potency is reported as inconclusive [inhibitor, partial curve, poor fit]. Cc1ccccc1-c1ccc(COc2ccc3c(cnn3CCC(=O)O)c2)cc1 was tested, and the “activity change, negative = inhibition” value was inactive: 4.7% [at 88.5 µM]. For COc1ccc([C@@H](NC(=O)c2coc3ccccc23)C2CC(O)C2)cn1 (stereo not given in full), the Potency was inconclusive [inhibitor, single point]. For CCOc1ccc(NC(=O)c2ccc3c(c2)N(CC)C2CCCN2C3=O)cc1 (stereo not given), the Potency was inconclusive [inhibitor, single point]. For CC(C)(C)C(=O)N1CCOC[C@H]1c1ncc(-c2ccc(OC(F)(F)F)cc2)[nH]1, the Potency was inconclusive [inhibitor, single point]. With Cc1c(C(=O)NCCCO)cnn1-c1nc(-c2cccc(C(F)(F)F)c2)cs1 the Potency was inconclusive [inhibitor, single point]. For CC(C)CN(C)C(=O)c1cc(-c2cnn(C(C)C)c2)nc2cc(F)ccc12, the “activity change, negative = inhibition” value was inactive: -2.89%. For COc1cc(F)ccc1-c1ccnc2nc(C3CCCCC3)nn12, the Potency was inconclusive [inhibitor, full curve, poor fit]. With O=C1NCc2ccccc2CC12CCCCN2Cc1ccc(Cl)s1 (stereo not given) the Potency was inconclusive [inhibitor, partial curve, poor fit]. For COC(=O)[C@@H]1Cc2c([nH]c3ccccc23)[C@H]2C[C@@H](NCCO)C[C@@H](c3ccc(F)cc3)N21, the “activity change, negative = inhibition” value was inactive: -4.37%. With O=C(c1ccccc1)N1CCC2(C1)C(=O)N(CCc1ccccc1)c1ccccc12 (stereo not given) the Potency was “inactive”. For CCOCCNc1nccc(C2(c3ccccc3Cl)CCNCC2)n1, the Potency was inconclusive [inhibitor, single point]. In the case of CC1=C[C@@H](CNC(=O)c2cnccn2)[C@H](C(C)C)C[C@H]1Cc1nc2ccccc2n1C, the Potency is reported as inconclusive [inhibitor, single point]. Cc1nnc(CN(C)c2ccc(-c3nc(-c4cccc(Cl)c4)no3)cn2)o1 was tested, and the Potency was inconclusive [inhibitor, single point]. In the case of COc1ccc(NC(=O)N2CCCC3(C2)Nc2cccnc2NC3=NC2CCCC2)c(C)c1 (stereo not given), the Potency is reported as inconclusive [inhibitor, partial curve, poor fit]. In the case of c1coc(-c2noc(CN3CCCC3c3nc(-c4ccncc4)no3)n2)c1 (stereo not given), the Potency is reported as inconclusive [inhibitor, single point]. In the case of Cc1nc(NCCC2CCOC2)c2c(C)nn(C)c2n1 (stereo not given), the Potency is reported as inconclusive [inhibitor, partial curve, poor fit]. In the case of COc1ccc(CC(=O)N2CCCN(c3cc(-c4ccc(Br)cc4)[nH]n3)CC2)cc1OC, the Potency is reported as inconclusive [inhibitor, partial curve]. Cc1cnn(CC(=O)N2C[C@@H](COc3ccccc3)[C@H](C(N)=O)C2)c1 was tested, and the Potency was inconclusive [inhibitor, partial curve, poor fit]. For COc1ccc(-c2cnc3n[nH]c(-c4ccccc4)c3n2)cc1, the “activity change, negative = inhibition” value was inactive: -0.875% [at 88.5 µM]. For Cn1ncc(CN2CC[C@@H]3[C@@H](CCC(=O)N3CCCN)C2)c1C1CC1, the Potency was inconclusive [inhibitor, full curve]. C=CCN1CC2(CCC1=O)CCN(c1nccc(C(F)(F)F)n1)CC2 was tested, and the Potency was inconclusive [inhibitor, partial curve, poor fit]. In the case of O=C(NC1CCNCC1)c1cc(C2CC2)nc2c1c(C1CCCN1)nn2-c1ccccc1 (stereo not given), the “outcome” value is reported as “inactive”. COc1ccc(C(=O)N2CCC3(CC2)N=C(c2cccc(Br)c2)NO3)cc1F was tested, and the “outcome” value was “inactive”. For CCOc1ccc(-c2cc3c(=O)n(CCNC(=O)c4ccc(C)c(C)c4)ccn3n2)cc1, the “outcome” value was “inactive”. In the case of OC1(c2csc(CN3CCOCC3)n2)CCN(Cc2ccccc2C(F)(F)F)CC1, the “outcome” value is reported as “inactive”. With Cc1noc(-c2cccn3c(CNC(=O)c4cccc(F)c4)nnc23)n1 the “outcome” value was “inactive”. In the case of CCn1ncc(N2CCC(NC(=O)C(C)(C)C)CC2)cc1=O, the Potency is reported as inconclusive [inhibitor, single point]. With O=C(c1ccc(Cl)cc1Cl)N1CCC(c2nnc3n2C(C(=O)N2CCN(c4ncccn4)CC2)CC3)CC1 (stereo not given) the Potency was inconclusive [inhibitor, single point]. In the case of CCn1ccc(C(=O)N2CCC3(CC2)NCCc2c3[nH]c3ccc(OC)cc23)n1, the “activity change, negative = inhibition” value is reported as inactive: -8.36%. Cc1ccc(-c2ccc3nnc(CNC(=O)Cc4cccc(Cl)c4)n3n2)cc1 was tested, and the “activity change, negative = inhibition” value was inactive: 0.634%. In the case of O=C(Nc1ccc(Cl)cc1)C1=NO[C@@H]2CN(c3ccccc3)C[C@H]12, the “activity change, negative = inhibition” value is reported as inactive: -19.7% [at 88.5 µM]. For CC1(C)CCC(CN2CCN(c3ccc(C(=O)NS(=O)(=O)c4ccc(NCC5CCOCC5)c([N+](=O)[O-])c4)c(Oc4cnc5[nH]ccc5c4)c3)CC2)=C(c2ccc(Cl)cc2)C1, the Potency was inconclusive [inhibitor, single point]. For Cc1nc(C)c(C(=O)NCCc2noc(-c3ccncc3)n2)s1, the “outcome” value was “inactive”. For O=C(CN1CCN(C(=O)c2cc3c(s2)CN(C2CCCC2)C3)CC1)N1CCCC1, the Potency was inconclusive [inhibitor, single point]. In the case of O=C(c1ccoc1)N1CCN2CCS(=O)(=O)N(C3CC3)C(=O)C2C1 (stereo not given), the Potency is reported as inconclusive [inhibitor, single point]. In the case of C=CCO[C@@H]1C[C@H]2C(=O)Nc3ccc(-c4ccc(F)cc4F)cc3C(=O)N2C1, the “activity change, negative = inhibition” value is reported as inactive: 1.24% [at 88.5 µM]. COC[C@H]1CCCN1C(=O)C[C@@H]1O[C@H](CNS(=O)(=O)c2ccccc2)[C@@H](O)[C@H]1O was tested, and the Potency was inconclusive [inhibitor, single point]. With COc1ccc(C(=O)N[C@H]2C[C@@H](c3nc(-c4ccc(OC)cc4)no3)N(C)C2)cc1 the Potency was inconclusive [inhibitor, partial curve, poor fit]. For c1ccc(-c2cnc(Nc3ccc(OCCN4CCCC4)cc3)s2)cc1, the Potency was inconclusive [inhibitor, partial curve, poor fit].
